The source gives no read counts; variants with many changes may rest on few reads.
B1: OR4K15 (parent)
chain: GUUAACGGUCAUAGGCCAUGGAAACUAGGAGCACCAUUUCGCUGCCAGUGAAGAAAUGAACAAAGAAAAUCUGGGCCAGGCAGGCAUCAAAAGAAAUAGUCUUGCGCUCAACCAGAAAGUCUGUAAUCAUUUUAAGGGUA

Variants of: B1
Assay: self-cleavage, relative activity (ratio to wild type); higher = more cleavage; in vitro, sequencing; the parent is a self-cleaving ribozyme

Row | Variant | self-cleavage
1 | A51G A52U A60G A63U | 0.76
2 | A51G A52G A91G | 0.95
3 | U49C A64G A126U | 0.82
4 | U49C U72C U100C | 0.28
5 | A51U A54G A63U U132C | 2.25
6 | U49C A55U C105U | 0.02
7 | A51U A52G A56G | 1.71
8 | A51G U87C A129G | 1.46
9 | U49A U72C C76A | 0.12
10 | A51G U102A A129G | 0.37
11 | U49C A66G A91U U131C | 1.36
12 | A47U A64G U72C | 0.16
13 | A47G U127C U133C | 0.77
14 | U49C A98G U108C | 0.01
15 | G48U U72A U139C | 0.34
16 | U49C A62U A116G | 0.86
17 | U49C A67G U122C | 1.5
18 | A51G A63U A86G C107U A116G | 0.03
19 | U49C A90G A91G | 0.6
20 | U49A A64U A66G A89G | 1.06
21 | A51G A56G A60U U72A | 0.48

Row | Variant | self-cleavage
22 | A47U A69U A78U U100C | 1.74
23 | U49C A59G G65A U139A | 0.84
24 | U49G A62G A63G | 1.18
25 | U49C A62G A140G | 0.66
26 | A47G U49C A67G A92G | 0.59
27 | G48A A56G A59G A60G A69U A82G U103C A118G | 1.71
28 | A51G U70C A94G | 0.96
29 | U49C A55G U57C U102C U139G | 1.39
30 | U49C A82G U139C | 0.41
31 | A47U A96G U97C U122A | 0.06
32 | U49A A62G U132C | 1.13
33 | A47G A114U U120C U130C | 0
34 | A47G A89G A92G U130C | 0.73
35 | A47U A96G U108C A117G A126G | 0
36 | A51G A82U U120C | 0.13
37 | U49C A62C C85A U100C | 0.56
38 | A47G U49C G50A A78G U131C | 0.05
39 | A51G A82G A118G U131C | 0.05
40 | G50C A56G U102C | 1.81
41 | A47G U57C A78G A94U U120C | 0.09
42 | G50A A69U A82G U120A | 0.58

Row | Variant | self-cleavage
43 | A51G A66G A126G | 1.14
44 | A51G A86G U87C A96G A116G | 0.37
45 | A47U A118G U122C A129G | 0.24
46 | A51G A117U U127C A134G | 0.37
47 | U49C U87A A126C A129G | 0.56
48 | A51G A110C A114G | 0.08
49 | A51C A91G U100A A118G A135G | 0.23
50 | A51C U57C U102C U127A | 2.21
51 | A51G G79A C105U | 0
52 | A47U A68G A95G A134G | 1.38
53 | A51G A59U A60G A67G U127C | 0.3
54 | A47U A55U A92G | 0.05
55 | A51G A126C U130C U139C | 0.48
56 | A51G U57C A118U A129G | 0.15
57 | A47U U49A A63G A82G A89G A116G | 0.04
58 | U49G A67G U72C | 0.16
59 | U49C A78G U122C | 0.13
60 | A47G U57C A62G | 0.92
61 | A47U A69G U70A G104A | 0.02
62 | A47U U108A U122A A129U U139C | 0.01
63 | A47U A54G A92U | 0.95

Row | Variant | self-cleavage
64 | U49C A117G A118G U139A A140G | 1.95
65 | U49C A66G A92G A117G | 1.44
66 | A51C A52G A55G A78G U87C A111G | 0.03
67 | A47U A96U U102C | 1.35
68 | U49A U57C U108C | 0.02
69 | U49G U87C U108C | 0.01
70 | A51G A78U A82G A95G U130C | 0.1
71 | A51G A89G A94G | 1.74
72 | U49A A89G A125G | 0.11
73 | A47U A89U A94G | 1.47
74 | U49C A89G A125G U133C | 0.61
75 | G48A U130C U131C | 1.2
76 | U49C A86G A92G | 0.86
77 | A47G A67G A68G U122C | 0.14
78 | U49C A62U A66G U72A U122G | 0.4
79 | A51G A52G A55U A140G | 2.06
80 | U49C A52U U131C | 1.21
81 | U49A A96G A111G U130C U131C | 0
82 | A47G A96U U133A | 1.53
83 | A51U A54G A56G A94G A134G A140U | 2.48
84 | U49C A98G A116G | 0.1
